# Reference: the RNAGym collection of RNA variant scans (doi:10.1093/nar/gkz1192)
# Read counts are not given, so values of variants with three or more changes are uncertain.
# B1: CPEB3 Ribozyme (parent)
# chain: UAACAGGGGGCCACAGCAGAAGCGUUCACGUCGCAGCCCCUGUCAGAUUCUGGUGAAUCUGCGAAUUCUGCUGUAUAUCUC
# Variants of: B1
# Experiment: self-cleavage, relative activity (ratio to wild type); higher = more cleavage; in vitro, sequencing
# Procedure, shortened: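 Barcoded CPEB3 ribozyme mutants, produced by rounds of error-prone PCR, self-cleaved while being transcribed with T7 RNA polymerase for 5 hours at 37°C and during a subsequent 15 min DNase I step before EDTA was added. Sequencing of template-switched cDNA on Illumina gave cleaved and total reads, and DNA sequencing assigned barcodes to variants. Each variant's relative activity is its cleaved/total read fraction divided by the unmutated ribozyme's fraction, averaged across three batches. A variant needed a minimum of 5 reads.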
row,Variant,self-cleavage
1,AAACAGGGGGCCACAGCAAAAGCGUUCACGUCGCGGCCCCUGUCAGAAUCUGGUGAAUCUGCGAAUUCUGCUGUAUAACUC,0.11
2,AAACAGGGCGCCACAGCAGAAGCGUUCACGUCGCAGCCCCUGUCAGAUUCUGGUGAAUCUGCGGACUCUGCUGUAUAUCUC,0.13
3,AAACAGGGGUCCACAGCAGAAGCGUUCACGUCGCAGCCCCCGUCAGAUUCUGGUGAAUCUGCGAAUUCAGCUGUAUAUCCC,0.17
4,AAACAGGGGACCACAGCAGAAGCAUUCACGUCGCAGGCCCUGUCAGAUUCUGGUGAAUCUGCGAAUUCUGCUGUAUGUCUC,0.05
5,AAACAGGGGGCCACAGCAGAAGCGUUCAUGUCGCAGCCCUUGUCAGAUUCUGGUGAAUCUGCGAAUCCUGCUGUAUAUCCC,0.07
6,AAACAGGGUGCCACAGCAGAAGCGUACACGUCGCAGCCCCUGUCAGACUCUGGUGAAUCUGCGAAUUCCGCCGUAUAUCUC,0.1
7,AAACAAGGGGCCACAGCAGAAGCGUUCACGUCGCAGCCCCUGUCAGAUUCUGGUGAACCUGCGAAUUCUGCUGUAUAUCCC,0.3
8,AAACAGGGAGCCACAGCAGAAGCGCUCACGUCGCAGCCCCUGUCAGAUUCUGGUGAAUCCGCGAAUUCUGCUGUAUAUCUC,0.13
9,AAACAGGGGGCCACAGUAGAAGCGCUCACGUCGCAGCCCCUGUCAGAUACUGGUGAGUCUGCGAAUUCUGCUGUAUAUCUC,0.22
10,AAACAGGGGGCCACAGCAGAAGCGUUCACGUCACAUCCCCUGUCAGAUUCUGGUGAAUCCGCUAAUUCUGCUGUAUAUCUC,0.07
11,AAACAGGGGGCCACAGCAUAAGCGUUCACGUCGCGGCCCCUGACAGAUCCUGGUGAAUCUGCGAAUUCUGCUGUAUAUCUC,0.24
12,AAACAGGGGGCCACAGCAUAAGCGCUCACGUCGCAGCCCCUGUCAGAUUCUGGUGAAUCUGCGAAUUCUGCUGUAUAUCAC,0.08
13,AAACAGGGGGCCACAGCAGAAGCGUUCACGUCGCAGCUCCUGUCAGAUUCUGGUGAAUCUGCGAAUUCUGCGGUAUAUCUC,0.82
14,AAACAGGGGGCCACAGCAGAAGCGUUCACGUCCCAGCCCCUGUCGCAUUCUGGUGAAUCUGCGAAUUCUGCUGUAUAUCUC,0.06
15,AAACAGGGGGCCACAGCAGAAGCGUUCACGUUGCAGCCCCUGUCAGAUUCUGGUGAAACUGCUAAUUCUGCCGUAUAUCUC,0.08
16,AAACAGGGAGCCACAGCAGAAGCGUCCACGUCGCAGCCCCUGUCAGAUUCUGGUGAAUCUGCGAAUUCUGCUGUAUAUCUC,0.44
17,AAACAGGGGGCCACAGCAGAAGCGUUCACGUCGCAGCUCCUGUCAGCUUCUGGUGAAUCUGCGAAUUCUGCUGUAUAUCUC,0.22
18,AAACAGGGGGCCACAGGAGAAGCGCUCACGUCGCAGCCCCUGUCAGAUUCUGGUGAAUCUGCGAAUUCUGCUGUAUAUCCC,0.07
19,AAACAGGGGGCCACAGCAGAAGCGUUCACGUCGCAGCCCCUGUCAGAUUCUGAUGAAUCUGCGAAUUCUGCUGUAUUUCUC,1.15
20,AAACAGGGGGCCACAGCAGAAGCGUUCACGUAGCAGCCCCUGUCAGAUUCUGGUGAAUCUGCGAAUUCUGCCGUAUAUCUC,0.09
21,AAACAGGGGGCCACAGCAAAGGCGUUCACAUCGCAGCCCCUGUCAGAUUUUGGUGAAUCUGCGAAUUCUGCUGUAUAUCUC,0.05
22,AAACAGGGGGCCACAGCAGAAGCGCUCACGUCGCAGCCCCUGUCAGAUUCUGGUGAGUCUGCGAAUUCUGCUGCAUAUCUC,0.24
23,AAACAAGGGGCCACAGCAGAUGCGUUCACGCCGCAGCCCCUGUCAGAUUCUGGUGAAUCUGCGAAUUCUGCUGUAUAUCUA,0.07

row,Variant,self-cleavage
1,AAACAGGGGGCCACAGCAGAAGCGUUCACGUCGCAGCCCCUGUUAGAUUCUGGCGAAUCUGCGAAUUCUGCUGUAUAUCUC,0.29
2,AAACAGGGGGCCACAGCAGAAGCGUUUACGACGCAGCCCCUGUCAGAUUCUGGUGAAUCUGCGAAUUCUGCAGCGUAUCUC,0.08
3,AAACAGGGGGCCACAGCAAAAGCGUUCACGUCGCAGCCCCUGUCAGAUUCUGAUGAAUCUGCGAAUUCUGCUGUAUUUCUC,0.16
4,AAACAGGAGGCCACAGCAGAAGCGUUCACGUAGCAGCCCCUGUCAGAUUCUGGUGAAUCUGCGAAUUCUGCUGUAUACCUC,0.22
5,AAACACGGGGCCACAGCAGAGGCGUUCACGUCGCAGCCCCUGUCGGAUUCUGGUGAAUCUGCGAAUUCAGCUGUAUACCUC,0.09
6,AAACAGGGGGCCACAACAGAAGCGCUCACGUCGCAGCCCCAGUCAGAUUCUGGUGAAUCCGCGGAUUCUGCCGUAUAUCUC,0.1
7,AAACAGGGGGCCACAGCAGAAGCGCACACGUCGCAGCCCCUGUCGGAUUCCGGUGAAUCUGCGAAUUCUGCUGUUUAUCUC,0.1
8,AAACAGGGUGCCACAACAGAAGCGCUCACGUCGCAGCCCCUGUCAGAUUCUGGUGAAUCUGCGAAUUCUGCUGUAUAUCUC,0.06
9,AAACAGGGGGCCACAGCAGAAGCGUUCACGUCGCAUCCCUUGCUAGAUUCUGGUGAAUCCGCGAAUCCUGCUGUAUAUCUC,0.07
10,AAACAGGGGGCCACAGCAGAAGCGUUCACGUCGCAUCCCCUGUCAGAUUCUGGUGAAUCAGCGAAUUCUGCUGUAUAUCUC,0.03
11,AAACAGGGGGCCACAACAUAAGCGUUCACGUCGCAGCCCCUGUCAGAUUCUGGUGUAUCUGCGAAUUCUGCUGUAUAUCUC,0.05
12,AAACAGGGGGCCACAGCAGAAGUGUUCACCUCGCAGCCCCUGUCUGAUUCUGGUGAAUCCCCGAAUUCUGCUGUAUAUCUC,0.13
13,AAACAGGGGGCCACAGCAGAAGCGCUCACGUCGCAGCCCCAGUCAGAUUCUGGUGAAUCUGCGAAUUCUGCAGUAUGUCUC,0.09
14,AAACAGGGGGCCACAGCAGAAGCGUCCACGUCGCAGCCCCUAUCAGAUUCAUGUGAAUCUGCGAAUUCUGCUGUAUAUCUC,0.11
15,AAACAAGGGGCCACAGCAGAAGCGCUCACGUCGCAGCCCCUGUCAGAUUCUGGUGAAUCCGCGUAUUCUGCUAUAUAUCUC,0.09
16,AAACAGGGGGCCACAGCAGAAGCGUUCACGUCGCAACCCCUGUCAGAUUCUGGUGAAUCUGCGAAUUCCGCUGUAUAUCUC,0.12
17,AAACAGGAGGCCACAGCAGAAGCGUUCCCGUCGCAGCCCCUGUCAGAUUCCGGUGAAUCUGCGAAUUCUGCCGUAUAUCUC,0.16
18,AAACAGGGCGCCACAGCAGAAGCGUUCACGUCGCUGCCCCUGUCAGAUUCUGGUGAAUCUGCUAAUUCUGCUGUAUAUCUC,0.22
19,AAACAGGGGGCCACAGCAGAAGCGUCCACGUCGCAGCCCCUGUCAGAUUCUGGUGUAUCUGCGAAUUCUGCAGUAUAUCUC,0.15
20,AAACAGGUGGCCACAGCAGUAGCGUUCACGUCGCGGCCCCUGUCAGAUUCUGGUGAAUCUGCGAAUUCUGCAGUAUAUCUC,0.13
21,AAACAGGGGGCCACAGCAGAAGCGUCCACGUCGCAGCCCCUGUCAGAUUCUGGUGAAUCAGCGAAUUCUGCUGUAUAUCUC,0.35
22,AAACAGGGGGCCACAGCAGAAGCGUUCACGUCGCAGCCCCUGUCAGAUUCUGGUGAAUUUGCGAAUUCUGCUGUAUUUCUC,0.98
23,AAACAGGGGGCCACAGCAGAAGCGUCCACGUCGCCGCCCCUGUCAGAUUCUGGUGAGUCUGUGAAUUCUGCCGUAUAUCUC,0.07

row,Variant,self-cleavage
1,AAACAAGGGGCCACAGCAGAAGCGUCCACGUCGCAGCCCUUGUCAGAUUCUGGUGAAUCUGCGAAUUCUGCUGUAUAUCUC,0.23
2,AAACAGGGGGCCACAGCAGAAGCGAUCUCGUCGCAGCCCCUGUCAGAUUCUGGCGAAUCUGCGAAUUCUGCUGUAUAUCUC,0.25
3,AAACAGGGGGCCACAGCAGAAGCGUGCACGUCGCAGCCCCUGUCAGAUUCUGGUGAAUCUGCGGAUUCUGCUGUAUAUCUC,0.22
4,AAACAGGGGGCCACAGCAGAAGCGUCCACUUCGCAGCCCCUGUCAGACUCUGAUGAAUCUGCGAAUUCUGCUGUAUAUCUC,0.17
5,AAACAGGGGGCCACAGCAGAAGCAUUCACGUCGCAGCCCCAGUCGGAUUCUGGUGAAUCUGCGAAUUCUGCUGUAUAUCUC,0.08
6,AAACAGGGGGCCACAGCAGAAGCGUCCACGACGCGGCCCCUGUCGGGUUCUGGUGAAUCUGCGAAUUCUGCUGUACAUCUC,0.1
7,AAACAAGGGGCCACAGCCGAAGCGUUCACGUCGCUGCCCCUGUCAGAUUCUGGCGAAUCUGCGAAUUCGGCCGUAUAUCUC,0.12
8,AAACAGGGGGCCACAGCAGAAGCGUUCACGUUGCAGCCCCUGUCAGAUUCUGGUGAAUCUGCGAAUUCUGCAGCAUAUCUC,0.11
9,AAACAGGGGGCCACAGCAGAAGCAUACACGUCGCAGCCCCUGUCAGAUUCUGGUGAAUCUGCGAAUUCUGCUGUAAAUCUC,0.25
10,AAACAGGGGGCCACAGCAGAAGCGUACACGUCGCGGCCCCUGUCGGAUUCUGGUGAAUCUGUGAAUUCUGCUGUAUAUCUC,0.24
11,AAACAGGGGGCCACAGCAGAAGCGUCCACGUCGCAGCCCCUGUCAGAUCCUGGUGAAACUGCGAAUUCUGCUGUAUAUCUC,0.06
12,AAACAGGGGGCCACAGCAGAAGCGCUCGCCUCGGAGCCCCCGUCAGAUUCUGGUGAAUCUGCGAAUUCUGCUGUAUAUCAC,0.22
13,AAACAGGUGGCCACAGCAGAGGCGUUCACAUCGCAGCCCCUGUCAGAUUCUGGUGAAUCUGCCAAUUCUGCUGUAUACCUC,0.05
14,AAACAGGGGGCCACAGCAGAAGCGUUCACGUCGCAGCACCUGUCAGAUUCUGGCGAAUCUGCCAGUUCUGCUGUAUAUCUC,0.07
15,AAACAGGGGGCCACAGCAGAAGCGUUCACGUCGCACCCCCUGUCAGAUUUUGGUGUAUCUGCGAAUUCUGCUGUAUAUCUU,0.11
16,AAACAGAGGGCCACAGCGGAAGCGUUCUCGUCGCAGCCCCUGUCAGAUUCUGGUGAAGCUGCGGAUUCUGCUGUAUAUCUC,0.04
17,AAACAAGGGGCCACAGCAGGAGCGCUCACGUCGCAGCCCCUGUCAGAUUCUGGUGAAUCUGCGAAUUCAGCCGUAUAUCUA,0.06
18,AAACAGAGGGCCACAGCAGAAGCGUUCACGUUGCAGCCCCUGCCAGAUUCUGGUGAAUCUGCGAAUUCUGCUGUAUAUCCC,0
19,AAACAGGGGGCCACAGCAGAAGCGUCCACGUCGCAGCCCCUGUCAGAUUCUGGUGAAUCUGCGAAUUCUGCUGAAUAUCUC,0.81
20,AAACAGGGGGCCACAGAAGAAGCGUUCACGUCGCAGCCCCUGCCAGGUUCUGGUGAAUCUGCGAAUUCUGCUGUAUAUCUC,0.08
21,AAACAGGGGGCCACAGCAGAAGCGUUUACGUCGCAGCCCCUGUCAGAUUCCGGUGAAUCUGCGAAUUCUGCUGUAUAUCUC,0.2
22,AAACAGGGGGCCACAGCAAAAGCGUUCACGUCGCAGCCCCCUUCAGAUUCUGGUGGAUCAGCGAAUUCUGCUGUAUAUCUC,0.12
